Whole data set: some 33,000 sequences, median “E-score (-0.5 to 0.5)” near -0.013, cut for the highest 2% near 0.3. The list shows a part of the results.
Each sequence was assayed against T1, Msn1 (UniProt P22148) (assay: PBM E-score (8-mer binding enrichment) (E-score (-0.5 to 0.5)); higher = stronger / more preferred TF binding; most listed sequences are background and not binding sites). Settings: protein concentration: 200 nM; construct: GST-full length.
T1 sequence: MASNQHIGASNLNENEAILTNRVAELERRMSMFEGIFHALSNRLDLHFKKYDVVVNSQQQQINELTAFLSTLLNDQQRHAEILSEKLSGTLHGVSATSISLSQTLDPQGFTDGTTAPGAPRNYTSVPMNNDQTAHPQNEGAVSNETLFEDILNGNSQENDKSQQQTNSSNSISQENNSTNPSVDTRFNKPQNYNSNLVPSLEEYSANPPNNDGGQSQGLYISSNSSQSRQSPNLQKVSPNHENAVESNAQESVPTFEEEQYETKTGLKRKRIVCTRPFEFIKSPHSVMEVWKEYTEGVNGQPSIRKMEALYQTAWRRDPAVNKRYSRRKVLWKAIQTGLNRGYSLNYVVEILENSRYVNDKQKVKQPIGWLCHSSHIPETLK
In short: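 Using PURExpress in vitro transcription/translation, GST-tagged yeast transcription factors were made in full-length or DNA-binding-domain form. These were applied at about 100-200 nM to double-stranded universal all-10-mer Agilent arrays, and bound protein was detected with fluorescent anti-GST. Scans were normalised with masliner before the Universal PBM Analysis Suite assigned E-scores to ungapped eight-base words pooled with their reverse complements.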
For ACTCGAAC, the “PBM E-score” value was 0.0435. In the case of AGACTGCG, the “PBM E-score” value is reported as -0.178. With GAATTGCA the “PBM E-score” value was 0.0426. CCAGCTCC was tested, and the “PBM E-score” value was -0.24. ATACCTAC was tested, and the “PBM E-score” value was 0.0111. AGTATGTA was tested, and the “PBM E-score” value was -0.0186. In the case of ATCAAGTA, the “PBM E-score” value is reported as 0.173. With TAGTAAAA the “PBM E-score” value was -0.00108. In the case of CCATACGA, the “PBM E-score” value is reported as -0.00556. In the case of ACAATCTG, the “PBM E-score” value is reported as 0.196. For AAGCAGTC, the “PBM E-score” value was -0.0549. In the case of TATCCTAA, the “PBM E-score” value is reported as 0.0366. In the case of ACACCGGC, the “PBM E-score” value is reported as 0.0187. For CGACTGTA, the “PBM E-score” value was -0.147. With CTTCACTA the “PBM E-score” value was -0.0698. TAGTGCCA was tested, and the “PBM E-score” value was -0.101. In the case of ACGCTAGA, the “PBM E-score” value is reported as -0.284. For ACCGAGGA, the “PBM E-score” value was 0.0151. GGGAAAGA was tested, and the “PBM E-score” value was -0.168. In the case of GGGTGCAA, the “PBM E-score” value is reported as -0.188. TAAAGATA was tested, and the “PBM E-score” value was 0.0041. In the case of AAAGACTT, the “PBM E-score” value is reported as 0.0779. In the case of CTGAGATA, the “PBM E-score” value is reported as 0.166. With ACTGAGCT the “PBM E-score” value was -0.0939. For GTCAATGA, the “PBM E-score” value was -0.0907. For AAAATGCG, the “PBM E-score” value was 0.0361. With CAAGGCGC the “PBM E-score” value was -0.0453. In the case of ACTAGACG, the “PBM E-score” value is reported as 0.112. CACAAATG was tested, and the “PBM E-score” value was 0.0377. CAACGGAA was tested, and the “PBM E-score” value was 0.193. With GCGGACCC the “PBM E-score” value was -0.148. GTACGGCA was tested, and the “PBM E-score” value was -0.01. For ATATGGGG, the “PBM E-score” value was -0.228. AAGAAGTA was tested, and the “PBM E-score” value was 0.0325. With AAGATACA the “PBM E-score” value was 0.171. GGTCTGTA was tested, and the “PBM E-score” value was -0.109. ATGGGGGC was tested, and the “PBM E-score” value was -0.381. CAGTCCCC was tested, and the “PBM E-score” value was -0.328. CACCAAGC was tested, and the “PBM E-score” value was -0.0817. For AGAGAGCG, the “PBM E-score” value was -0.271. GTCACGGA was tested, and the “PBM E-score” value was 0.308. CAGATTGG was tested, and the “PBM E-score” value was -0.266. For CCAGTGAC, the “PBM E-score” value was -0.0989. ACCGGCAT was tested, and the “PBM E-score” value was 0.0814. In the case of ATATGAAC, the “PBM E-score” value is reported as 0.0766. For ACGTTTTC, the “PBM E-score” value was 0.0216. For AAGAATTC, the “PBM E-score” value was -0.0295. For GTCTGAAC, the “PBM E-score” value was 0.0312. With AAGGCGAA the “PBM E-score” value was -0.153. For ATTAAAAA, the “PBM E-score” value was 0.327. In the case of AGGCAACC, the “PBM E-score” value is reported as -0.186. GTCCGGCA was tested, and the “PBM E-score” value was 0.19. In the case of AAAGGCGC, the “PBM E-score” value is reported as -0.00349. TCAAGTCA was tested, and the “PBM E-score” value was 0.00434. In the case of TCGTGAGA, the “PBM E-score” value is reported as -0.127. AACCAGGC was tested, and the “PBM E-score” value was 0.0236. With CTCGCACC the “PBM E-score” value was 0.00375. With GGGTATGA the “PBM E-score” value was 0.0877. For CCAAAAGA, the “PBM E-score” value was 0.146. In the case of GTTAGCAA, the “PBM E-score” value is reported as 0.148. For CACCGACG, the “PBM E-score” value was 0.0473. For AGGCGAGC, the “PBM E-score” value was -0.0588. In the case of CCCATAAG, the “PBM E-score” value is reported as 0.00475. For AATGGCTA, the “PBM E-score” value was -0.0496. For ACCCTAGG, the “PBM E-score” value was -0.155. AGCCTCCT was tested, and the “PBM E-score” value was -0.183. In the case of GGCGAACA, the “PBM E-score” value is reported as 0.0598. CAACGCAA was tested, and the “PBM E-score” value was 0.11. For CGTCGTCC, the “PBM E-score” value was -0.0457. CCCGGCGG was tested, and the “PBM E-score” value was -0.218. GCTAACAC was tested, and the “PBM E-score” value was -0.0214. For ACATGGGG, the “PBM E-score” value was -0.0754. ATATCCAC was tested, and the “PBM E-score” value was 0.0731. For AAATGAGC, the “PBM E-score” value was 0.0159. With ATTCGGCG the “PBM E-score” value was 0.161. With AGGCGTAT the “PBM E-score” value was 0.00582. CGTACCTC was tested, and the “PBM E-score” value was -0.107. In the case of GAACAATC, the “PBM E-score” value is reported as 0.022. In the case of AAATCAGC, the “PBM E-score” value is reported as 0.126. For GTTGAATA, the “PBM E-score” value was 0.0705. AGTGATGC was tested, and the “PBM E-score” value was -0.0793. CATGCAGG was tested, and the “PBM E-score” value was -0.2. CTTCGCCC was tested, and the “PBM E-score” value was -0.219. In the case of ACTAATTA, the “PBM E-score” value is reported as 0.21. GCCGATCA was tested, and the “PBM E-score” value was -0.0192. In the case of GATTCGAA, the “PBM E-score” value is reported as 0.00623.
